# Test results reported in publication PMC4336329 (PLoS ONE, 2015).
# About 2,200 (0.71%) of roughly 310,000 compounds showed an effect of 50% or more. The effect is printed as a negative number. Some of the results follow.
# Target: human ether-à-go-go-related gene (hERG) potassium channel (human, UniProt Q12809)
# Test: primary screen, population patch clamp on CHO cells stably expressing hERG
# human ether-à-go-go-related gene (hERG) potassium channel, sequence (Q12809 whole entry, looked up): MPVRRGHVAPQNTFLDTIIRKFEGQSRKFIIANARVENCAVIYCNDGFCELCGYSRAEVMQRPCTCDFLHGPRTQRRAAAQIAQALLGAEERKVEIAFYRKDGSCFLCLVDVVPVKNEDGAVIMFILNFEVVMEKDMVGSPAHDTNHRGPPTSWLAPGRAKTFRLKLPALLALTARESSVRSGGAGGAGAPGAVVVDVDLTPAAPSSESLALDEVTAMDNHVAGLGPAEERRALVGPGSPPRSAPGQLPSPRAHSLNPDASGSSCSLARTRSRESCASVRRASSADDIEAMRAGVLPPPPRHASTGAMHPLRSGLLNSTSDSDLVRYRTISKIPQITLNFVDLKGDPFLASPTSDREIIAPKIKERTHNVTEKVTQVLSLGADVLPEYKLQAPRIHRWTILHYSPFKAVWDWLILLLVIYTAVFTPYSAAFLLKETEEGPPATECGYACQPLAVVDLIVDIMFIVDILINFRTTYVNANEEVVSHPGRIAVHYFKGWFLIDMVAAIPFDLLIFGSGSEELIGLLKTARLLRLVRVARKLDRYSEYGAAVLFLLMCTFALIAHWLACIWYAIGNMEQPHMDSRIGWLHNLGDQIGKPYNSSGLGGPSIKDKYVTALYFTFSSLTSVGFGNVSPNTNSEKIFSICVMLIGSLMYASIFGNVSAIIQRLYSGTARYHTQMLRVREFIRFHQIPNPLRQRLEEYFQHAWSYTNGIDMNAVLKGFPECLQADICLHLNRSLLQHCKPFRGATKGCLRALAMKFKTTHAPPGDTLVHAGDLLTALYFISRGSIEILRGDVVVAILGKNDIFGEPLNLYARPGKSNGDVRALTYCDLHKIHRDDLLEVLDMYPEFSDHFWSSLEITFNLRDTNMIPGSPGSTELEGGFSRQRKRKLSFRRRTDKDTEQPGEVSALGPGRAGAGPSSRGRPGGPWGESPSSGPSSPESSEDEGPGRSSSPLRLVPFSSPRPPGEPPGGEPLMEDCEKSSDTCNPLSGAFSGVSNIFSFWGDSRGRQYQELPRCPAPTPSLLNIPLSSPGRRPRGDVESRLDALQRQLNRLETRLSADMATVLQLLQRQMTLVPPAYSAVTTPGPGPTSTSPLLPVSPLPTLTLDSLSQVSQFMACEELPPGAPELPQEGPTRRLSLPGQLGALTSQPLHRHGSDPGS
row,SMILES,"hERG current change (%, negative = inhibition) at 1uM [%]"
1,COc1cc(C(=O)NNC(=O)COc2ccc(Cl)cc2)ccc1OCC(=O)N1CCOCC1,7.94
2,COc1cc(CN2CCNC(=O)C2CC(=O)N2CCc3ccccc3C2)cc(OC)c1 (centres unmarked),4.46
3,CCC(=O)OCc1c(C(F)(F)F)nn(C)c1Sc1ccc(F)cc1,12.7
4,CCc1nn(CC(=O)N2CCN(CC)CC2)c(=O)c2cccn12,10.4
5,CCOC(=O)c1c(C)sc2c1N(C(C)=O)c1cc(Cl)ccc1S2,5.46
6,Clc1cc(-c2ccc(/C=N/n3cnnc3)o2)ccc1Br,3.54
7,O=c1[nH]c(SCc2ccccc2)nc2c1sc1ccccc12,14.7
8,O=c1c(CN2CCN(c3cccc(Cl)c3)CC2)coc2c(Cl)cc(Cl)cc12,10.4
9,COC(=O)c1ccc(C(=O)OC)c(NC(=S)N2CCCCC2)c1,-7.19
10,COc1ccc(CCNC(=O)C(=O)NCC2OCCCN2S(=O)(=O)c2cc(C)ccc2C)cc1 (centres unmarked),7.7
11,CCOC(=O)C1=C(C)NC2=C(C(=O)CC(C)(C)C2)C1c1ccc(O)c(OCC)c1 (centres unmarked),12.3
12,CCN(CC)S(=O)(=O)c1ccc(OC)c(NC(=O)C(C)Oc2ccc3c(C)cc(=O)oc3c2)c1 (centres unmarked),-2.2
13,CCOc1ccc(C(C)C)cc1S(=O)(=O)n1ccnc1C,11.8
14,O=C(O)CCc1ccc(-c2ccccc2)n1-c1ccc(C(=O)O)cc1,10.7
15,COC(=O)c1ccc(NC(=S)NCCc2cccc(C)c2)cc1,6.21
16,CN1C(=O)/C(=C/c2cn(CC(=O)N3CCCCC3)c3ccccc23)c2ccccc21,12.8
17,CCOc1cc(/C=C/C(=O)OCC(=O)NCc2ccco2)cc(Cl)c1OC,-13.2
18,COc1ccc(/C(N)=N/OC(=O)C2CCC(=O)N2S(=O)(=O)c2ccc(C)cc2)cc1OC (centres unmarked),13.6
19,COc1ccc(S(=O)(=O)N2CCCOC2CNC(=O)C(=O)NCCc2ccco2)cc1C (centres unmarked),9.39

row,SMILES,"hERG current change (%, negative = inhibition) at 1uM [%]"
1,COc1ccc(-n2nc3c(c2NC(=O)COc2ccccc2)CS(=O)C3)cc1 (centres unmarked),-3.74
2,COc1ccc(C(=O)C(c2ccccc2)N2CCOCC2)cc1.Cl (centres unmarked),-2.23
3,O=C(O)[C@H]1CCCC[C@H]1C(=O)Nc1ccc(Nc2ccccc2)cc1,4.76
4,Cc1cc(-c2nnc3n2N=C(c2ccccc2Br)CS3)n[nH]1,8.21
5,CC1(C)CC(=O)C=C(NC2CCCCCC2)C1,5.7
6,CC(C)C(=O)N1CCN(c2ccccc2NC(=O)COc2ccc(C3CCCCC3)cc2)CC1,-8.38
7,COc1ccc(/C=N/Nc2nncn2N)cc1Br,15.2
8,Cc1nc2sc(C(N)=O)c(N)c2c2c1CCCC2,11.2
9,Cc1nc(CNC(=O)c2cc(COc3c(F)cccc3F)on2)cs1,5.1
10,CN(CC(=O)Nc1cc(Cl)ccc1Cl)C1CCS(=O)(=O)C1 (centres unmarked),10.1
11,Cc1ccc(C(=O)CSc2nnc(-c3ccc4[nH]c(C)c(C)c4c3)o2)cc1C,13.3
12,O=C1CCCCN1CCCC(=O)N1CCCC(Nc2ccc(F)c(F)c2)C1 (centres unmarked),8.46
13,COc1ccc(N2Cc3cccc(C(=O)NC(C)CCc4ccco4)c3C2=O)cc1 (centres unmarked),5.97
14,Cc1cc2ccccc2c(=O)n1CC(=O)NCC1COc2ccccc2O1 (centres unmarked),7.04
15,COc1ccccc1NC(=O)Cc1ccc(-c2ccccc2)cc1,18.9
16,O=C(O)C1C2CCC(C2)C1C(=O)NCCc1ccccc1 (centres unmarked),11
17,CC(=O)c1ccc(OCC(=O)N2CCCC(Nc3ccc(C)c(C)c3)C2)cc1 (centres unmarked),13.2
18,O=C(Nc1ccccc1)N1CCC(C(=O)N2CCN(Cc3ccccc3)CC2)CC1,-5.59
19,Cc1ccc(-n2c(=O)cc(NCc3cccnc3)[nH]c2=O)cc1,-6.03

row,SMILES,"hERG current change (%, negative = inhibition) at 1uM [%]"
1,C=CCC1c2cccc(C(=O)O)c2C(=O)N1c1ccc(Cl)cc1 (centres unmarked),-0.498
2,COc1cc(OC)cc(C(=O)NCC(=O)OCC(=O)/C=C2/N(C)c3ccccc3C2(C)C)c1,15.1
3,CN(C)C(=C(C#N)C#N)N1CCN(c2ccc(Cl)c(Cl)c2)CC1,-37.6
4,Cn1ccnc1-c1ccc(-c2nccn2C)cc1,10.9
5,C=CCN(CC(=O)NC1CCS(=O)(=O)C1)S(=O)(=O)c1ccccc1C(F)(F)F (centres unmarked),15.3
6,Cc1ccccc1-n1c(=O)n(Cc2ccccc2)c(=O)c2[nH]cnc21,7.2
7,c1ccc2c(c1)Sc1ccccc1N2CC1CN2CCC1CC2 (centres unmarked),0.96
8,CCc1nnc(NC(=O)C2CCN(S(=O)(=O)Cc3ccccc3)CC2)s1,8.02
9,CCn1c(SCc2c(F)cccc2Cl)nnc1-c1ccco1,-0.296
10,O=C(Nc1ccncc1)c1cccs1,9.52
11,COc1ccc(CCC(=O)OCC(=O)Nc2ccc(OC)c(OC)c2)cc1OC,18.5
12,O=C(NCc1cccnc1)c1ccc(S(=O)(=O)N2CCCCCC2)cc1,10.6
13,CC(C)N1C(=O)CCC1C(=O)N1CCN(c2ccccn2)CC1 (centres unmarked),8.69
14,CCCc1nnc(SCC(=O)N2C(C)CCCC2C)n1CC1CCCO1 (centres unmarked),7.13
15,CN(C)S(=O)(=O)c1ccc(SCC(=O)N2CC(=O)Nc3ccccc32)nc1,8.71
16,O=C1COc2ccc(S(=O)(=O)Nc3ccc(OC(F)(F)F)cc3)cc2N1,11.7
17,COc1cccc(NC(=O)CSc2nc3ccccc3cc2Cc2ccccc2)c1,3.83
18,Cc1ccccc1N1CCN(C2CCCN(C(=O)c3csc(C(C)C)n3)C2)CC1 (centres unmarked),-6.14
